The results in this text go back to paper PMC4336329 (PLoS ONE, 2015).

The whole screen tested about 310,000 compounds, of which about 14,000 (4.5%) showed an effect of 50% or more. The effect is printed as a negative number. This is one part of the list.
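Further: peak tail current of the secondary pulse compared with the same well before compound.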

The target of the assay is human ether-à-go-go-related gene (hERG) potassium channel (human, UniProt Q12809). As to the kind of experiment: primary screen, population patch clamp on CHO cells stably expressing hERG.
Chain of human ether-à-go-go-related gene (hERG) potassium channel (Q12809 whole entry, looked up): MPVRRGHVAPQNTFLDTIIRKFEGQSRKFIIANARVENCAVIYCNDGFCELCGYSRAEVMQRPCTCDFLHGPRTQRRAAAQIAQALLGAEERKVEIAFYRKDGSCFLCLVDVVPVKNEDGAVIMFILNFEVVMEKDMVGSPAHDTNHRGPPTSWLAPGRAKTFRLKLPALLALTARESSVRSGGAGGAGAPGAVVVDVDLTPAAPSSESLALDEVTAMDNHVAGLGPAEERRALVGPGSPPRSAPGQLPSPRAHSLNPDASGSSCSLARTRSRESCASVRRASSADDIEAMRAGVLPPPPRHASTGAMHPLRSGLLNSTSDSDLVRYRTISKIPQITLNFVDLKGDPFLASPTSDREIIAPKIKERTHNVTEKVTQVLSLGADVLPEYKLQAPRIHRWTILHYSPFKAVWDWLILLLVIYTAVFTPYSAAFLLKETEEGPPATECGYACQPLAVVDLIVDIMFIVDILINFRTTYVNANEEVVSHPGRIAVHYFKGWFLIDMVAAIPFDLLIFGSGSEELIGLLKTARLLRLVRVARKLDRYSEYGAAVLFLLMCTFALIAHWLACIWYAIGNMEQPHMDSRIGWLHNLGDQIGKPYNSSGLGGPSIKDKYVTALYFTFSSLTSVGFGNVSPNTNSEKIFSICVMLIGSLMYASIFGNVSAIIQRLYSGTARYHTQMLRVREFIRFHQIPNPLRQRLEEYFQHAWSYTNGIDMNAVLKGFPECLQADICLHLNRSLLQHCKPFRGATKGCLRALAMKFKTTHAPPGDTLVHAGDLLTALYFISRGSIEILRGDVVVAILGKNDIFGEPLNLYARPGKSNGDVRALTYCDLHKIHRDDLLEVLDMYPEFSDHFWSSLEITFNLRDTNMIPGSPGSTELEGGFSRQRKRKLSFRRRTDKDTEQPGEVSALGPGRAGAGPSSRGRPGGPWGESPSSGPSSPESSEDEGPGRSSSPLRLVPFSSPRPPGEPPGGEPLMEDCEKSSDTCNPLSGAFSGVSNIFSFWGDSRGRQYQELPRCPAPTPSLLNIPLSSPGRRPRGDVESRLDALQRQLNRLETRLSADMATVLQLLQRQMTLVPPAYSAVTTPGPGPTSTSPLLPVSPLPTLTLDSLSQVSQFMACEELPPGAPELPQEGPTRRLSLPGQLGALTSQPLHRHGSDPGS
Turning to `CC1(C)CC(NC(=O)c2cccc([N+](=O)[O-])c2)CC(C)(C)N1`, the “hERG current change (%, negative = inhibition) at 10uM” value was 24.2%.

On to `CC1(C)CN(S(=O)(=O)OCC(Cl)(Cl)Cl)C(=O)N1`, for which the “hERG current change (%, negative = inhibition) at 10uM” value was 3.14%.

Consider `CC(=O)N(Cc1cccc(Br)c1)c1ccc(N2CCOCC2)c(Cl)c1`, for which the “hERG current change (%, negative = inhibition) at 10uM” value was -26.3%.

Turning to `CC(C)Nc1nc(-c2cccnc2)nc(-c2ccccc2)c1C#N`, the “hERG current change (%, negative = inhibition) at 10uM” value worked out at 0.0862%.

Turning to `CCc1ccc(OCC(=O)NCCN(C)C)c(Br)c1`, the “hERG current change (%, negative = inhibition) at 10uM” value is listed as -58.4%.

With `Cc1cc(F)ccc1N1CCC(N2CCN(CCC(C)C)C(CCO)C2)CC1` (centres unmarked), the “hERG current change (%, negative = inhibition) at 10uM” value is listed as -63.5%.

For the molecule `O=C1C2ON(c3ccccc3)C(c3cccnc3)C2C(=O)N1c1ccccc1` (centres unmarked), the “hERG current change (%, negative = inhibition) at 10uM” value turned out to be 18.1%.

Take `O=C(Nc1ccc(C(=O)Oc2ccccc2)c(O)c1)c1ccccc1`: the “hERG current change (%, negative = inhibition) at 10uM” value is listed as 21.7%.

Turning to `CC(C)(C)OC(=O)NCCc1nnc(SCC(=O)c2ccc(Cl)cc2)o1`, the “hERG current change (%, negative = inhibition) at 10uM” value was found to be 1.1%.

For the molecule `O=C(Cn1nc(Cc2cccnc2)c2ccccc2c1=O)Nc1ccc2c(c1)OCO2`, the “hERG current change (%, negative = inhibition) at 10uM” value is -41.1%.

Turning to `COc1ccc(NC(=O)c2cnc(SC)n2-c2ccc(F)cc2)c(OC)c1`, the “hERG current change (%, negative = inhibition) at 10uM” value is given as -8.28%.

Consider `CC(=O)c1ccccc1NC(=O)COC(=O)c1cc2ccccc2[nH]1`, for which the “hERG current change (%, negative = inhibition) at 10uM” value is 5.41%.

`COc1ccc(CNC(=O)C2CC(c3ccc(F)cc3)=NO2)cc1` (centres unmarked): the “hERG current change (%, negative = inhibition) at 10uM” value is recorded as -7.35%.

`Cn1c(N)c(C(=O)COC(=O)CCc2c[nH]c3ccccc23)c(=O)n(C)c1=O`: the “hERG current change (%, negative = inhibition) at 10uM” value stood at 12.8%.

Turning to `CN(Cc1cccc(F)c1)C(=O)Cc1ccc(S(=O)(=O)N2CCOCC2)s1`, the “hERG current change (%, negative = inhibition) at 10uM” value is recorded as -28.1%.

`Cc1ccc(NC(=O)C(=O)Nc2ccc(C)cn2)nc1`: the “hERG current change (%, negative = inhibition) at 10uM” value was -4.27%.

As to `CC1=C(C(=O)Nc2ccccc2C(F)(F)F)C(c2ccc(C)s2)NC(=S)N1` (centres unmarked), the “hERG current change (%, negative = inhibition) at 10uM” value is recorded as -15.1%.

`Cc1cc([N+](=O)[O-])nn1CC(=O)Nc1ccc(F)cc1`: the “hERG current change (%, negative = inhibition) at 10uM” value turned out to be 6.31%.

Consider `COc1ccccc1NC(=O)C1CCCCC1`, for which the “hERG current change (%, negative = inhibition) at 10uM” value is on record as -4.47%.

As to `Cl.NC1=NC(c2ccccc2C(F)(F)F)N(c2ccc(F)c(Cl)c2)C(N)=N1` (centres unmarked), the “hERG current change (%, negative = inhibition) at 10uM” value turned out to be 16.4%.

Turning to `O=[N+]([O-])c1ccc(N/N=C/c2c[nH]c3ccccc23)c(S(=O)(=O)Nc2ccc(Cl)cc2)c1`, the “hERG current change (%, negative = inhibition) at 10uM” value was -3.58%.

`CCc1ccc(C(=O)COC(=O)c2ccc(-c3nnc(-c4ccccc4)o3)cc2)cc1`: the “hERG current change (%, negative = inhibition) at 10uM” value worked out at 9.62%.

As to `CCN1C(=O)C2CCCCN2c2ccc(C(=O)NCCOC)cc21` (centres unmarked), the “hERG current change (%, negative = inhibition) at 10uM” value was 12.7%.

`O=C(CSCc1c(F)cccc1Cl)Nc1ccccc1C(=O)N1CCOCC1`: the “hERG current change (%, negative = inhibition) at 10uM” value was found to be 5.4%.

In the case of `O=C(Cc1nnc(NC(=O)Nc2ccccc2F)s1)NCc1ccccc1`, the “hERG current change (%, negative = inhibition) at 10uM” value worked out at 8.98%.

For `CCOc1ccccc1NC(=S)N1CCC(NC(=O)c2ccco2)CC1`, the “hERG current change (%, negative = inhibition) at 10uM” value amounted to 2.86%.

For the molecule `CCN(CC)CCCN(Cc1cc2cc3c(cc2[nH]c1=O)OCO3)C(=S)NCc1ccco1`, the “hERG current change (%, negative = inhibition) at 10uM” value is recorded as -38.2%.

As for `Cc1nnc(NC(=O)C2CCN(S(=O)(=O)c3ccc(Cl)cc3)CC2)s1`, the “hERG current change (%, negative = inhibition) at 10uM” value is listed as 14.8%.

In the case of `COC(=O)[C@@H](NC(=O)NCc1ccco1)C(C)C`, the “hERG current change (%, negative = inhibition) at 10uM” value is 2.75%.

For the molecule `O=C(CCCn1c(=O)c2sccc2n(CC(=O)OCc2ccccc2)c1=O)NCc1ccco1`, the “hERG current change (%, negative = inhibition) at 10uM” value is reported as -30.4%.

In the case of `Cc1cccn2cc(-c3ccccc3)nc12`, the “hERG current change (%, negative = inhibition) at 10uM” value is on record as -4.67%.

In the case of `COc1ccc(OC)c(NC(=O)c2ccc(-c3csc(C)n3)cc2)c1`, the “hERG current change (%, negative = inhibition) at 10uM” value turned out to be 7%.

For the molecule `COc1cccc(NC(=O)Nc2nnc(N3C(C)CCCC3C)s2)c1` (centres unmarked), the “hERG current change (%, negative = inhibition) at 10uM” value is on record as 24.9%.

For the molecule `O=C1CCCC2=C1C(c1cccs1)n1nc(SCc3ccccc3)nc1N2` (centres unmarked), the “hERG current change (%, negative = inhibition) at 10uM” value is -4.83%.

As for `O=C(c1cccnc1)C1CCCN(Cc2nc(-c3cnccn3)no2)C1` (centres unmarked), the “hERG current change (%, negative = inhibition) at 10uM” value was -6.56%.

On to `COC(=O)Cc1ccc(NC(=S)NN2CCOCC2)cc1`, for which the “hERG current change (%, negative = inhibition) at 10uM” value is on record as -4.04%.

Take `CC1(C)CC(=O)CC(C)(C)N1OC(=O)c1ccccn1`: the “hERG current change (%, negative = inhibition) at 10uM” value is reported as 0.264%.

For the molecule `CCOC(=O)Cn1c(C)nc2c(C(=O)OCC)sc(C)c2c1=O`, the “hERG current change (%, negative = inhibition) at 10uM” value is -5%.

As for `COc1cccc(/C=N/NC(=O)CSc2ccccc2C)c1OC`, the “hERG current change (%, negative = inhibition) at 10uM” value worked out at 11.2%.

For `O=C(CCS(=O)(=O)c1ccc(Cl)cc1)NCCN1C(=O)S/C(=C\c2ccccc2F)C1=O`, the “hERG current change (%, negative = inhibition) at 10uM” value is reported as 13.9%.

As to `CC(C)C(=O)Nc1cccc(C(=O)Nc2ccccc2C(=O)O)c1`, the “hERG current change (%, negative = inhibition) at 10uM” value is 9.21%.

`O=C(NC(Cc1c[nH]c2ccccc12)C(=O)Nc1ccc(F)cc1)c1cccs1` (centres unmarked): the “hERG current change (%, negative = inhibition) at 10uM” value is recorded as -23.8%.

Consider `Cc1c(C(N)=O)sc2ncn(CC(=O)N3CCC(C)CC3)c(=O)c12`, for which the “hERG current change (%, negative = inhibition) at 10uM” value came out at 0.551%.

`COc1ccc(Cl)cc1C(=O)NNC(=O)c1nc2nc(C)cc(C)n2n1`: the “hERG current change (%, negative = inhibition) at 10uM” value is 9.73%.
